Where “and” joins values, the source holds several entries; their conditions need not be identical. Equal entries are not always repeated. Inconclusive means that the source gave no clear call. Such entries were picked first, then a sample of the others. For some assays here: A potency beside an inconclusive call is a rough fit, not a confirmed value. A structure can be active in one record and inactive in another. Calls of active or inactive are those of the source. Unless noted, the call rests on the fitted dose curve; in most records, active means well fitted curve in the direction sought with a large enough effect in the repeat runs; inconclusive means weak or mixed curves; inactive means no such curve, though single readings can be large; an effect the other way counts as inactive or inconclusive.
Columns and labels:
[1] = A CellTox Green Cytotoxicity Assay to monitor cytotoxicity in HepG2 cells - 24 hour (AID 1224878); further: nearly all actives have a fitted effect of over 45% in size
In short: (§1)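 Fluorescent DNA-binding dye, 600 HepG2 cells/well, 5 h preincubation then compound in DMSO; same plates read at 0–40 h, 37 C.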

[2] = qHTS RealTime-Glo MT Cell Viability Assay in HEK293 cells - 0 hour (AID 1224880); further: nearly all actives have a fitted effect of over 45% in size
In short: (§2)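 Measured as luminescence from the same continuously cultured HEK293 wells at successive time points (0, 8, 16, 24, 32, 40 h) after compound addition. Reagent present from seeding; dosing at 5 h; incubation 37 C.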

[3] = A CellTox Green Cytotoxicity Assay to monitor cytotoxicity in HepG2 cells - 32 hour (AID 1224883); further: nearly all actives have a fitted effect of over 50% in size
In short: as §1

[4] = qHTS RealTime-Glo MT Cell Viability Assay in HEK293 cells - 8 hour (AID 1224887); further: nearly all actives have a fitted effect of over 50% in size
In short: as §2

[5] = A CellTox Green Cytotoxicity Assay to monitor cytotoxicity in HEK293 cells - 16 hour (AID 1224888); further: nearly all actives have a fitted effect of over 35% in size
In short: (§3)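 Homogeneous no-lysis format: HEK293 cell suspension mixed with CellTox Green reagent, seeded, incubated 5 h at 37 C/5% CO2, then dosed by pintool with compound in DMSO.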

[6] = qHTS assay to identify small molecule antagonists of the estrogen receptor alpha (ER-alpha) signaling pathway using the BG1 cell line in the presence of 0.1 nM 17-beta-estradiol - cell viability counter screen (AID 1259241); further: nearly all actives have a fitted effect of over 40% in size
In short: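 Cytotoxicity counter-screen: live-cell protease activity measured by fluorescence (30 min reagent step) in the same wells. Cells were VM7Luc4E2 with endogenous ER-alpha and ERE-driven luciferase, treated 22 hr at 37C alongside 0.1 nM 17beta-estradiol final.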

[7] = qHTS assay to identify small molecule phospholipidosis (PLD) inducers (AID 1259344; active means well fitted curve in the direction sought with a large enough effect; inconclusive means small, poorly fitted or top-dose-only effect, or another doubt; inactive means no such curve, though single readings can be large; an effect the other way counts as inactive or inconclusive)
In short: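 Phospholipid accumulation was scored by imaging: fixed, Hoechst-counterstained HepG2 cells stained with LipidTOX Red after 24 h compound exposure at 37 C. Read-outs were pit count and pit intensity per well or per cell, with amiodarone and DMSO controls.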

[8] = A CellTox Green Cytotoxicity Assay to monitor cytotoxicity in HEK293 cells - 32 hour (AID 1224881); further: nearly all actives have a fitted effect of over 40% in size
In short: as §3

[9] = qHTS RealTime-Glo MT Cell Viability Assay in HepG2 cells - 16 hour (AID 1224885); further: nearly all actives have a fitted effect of over 50% in size
In short: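 Real-time, nonlytic viability: 600 HepG2 cells/well mixed with NanoLuc enzyme plus prosubstrate; 5 h settle, compound (DMSO) added by pintool; luminescence monitored over 40 h at 37 C.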

[10] = qHTS RealTime-Glo MT Cell Viability Assay in HEK293 cells - 24 hour (AID 1224886); further: nearly all actives have a fitted effect of over 50% in size
In short: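 Cells + reagent dispensed (600 cells/well, HEK293) → 5 h at 37 C/5% CO2 → 23 nL compound in DMSO pinned → 40 h at 37 C → luminescence read at 0, 8, 16, 24, 32, 40 h.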

[11] = A CellTox Green Cytotoxicity Assay to monitor cytotoxicity in HepG2 cells - 8 hour (AID 1224890); further: nearly all actives have a fitted effect of over 45% in size
In short: as §1

[12] = qHTS assay to identify small molecule antagonists of the androgen receptor (AR) signaling pathway using the MDA cell line in the presence of 0.5 nM R1881 - cell viability counter screen (AID 1259242); further: nearly all actives have a fitted effect of over 45% in size
In short: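 Human breast carcinoma MDA-kb2 cells, cultured without CO2, receive compounds alongside 0.5 nM (final) R1881 agonist. After 16 hr at 37C, viability is taken as live-cell protease signal.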

[13] = target: Androgen receptor (Homo sapiens) (UniProt P10275); experiment: qHTS assay to identify small molecule antagonists of the androgen receptor (AR) signaling pathway using the MDA cell line in the presence of 0.5 nM R1881 (AID 1259243); further: nearly all actives have a fitted effect of over 50% in size
In short: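 Cells: MDA-kb2 (MMTV-luc). Stimulus: 0.5 nM R1881. Time: 16 hr, 37C, no CO2. Detection: ONE-Glo luminescence after 30 min at RT.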

[14] = A CellTox Green Cytotoxicity Assay to monitor cytotoxicity in HepG2 cells - 0 hour (AID 1224882); further: nearly all actives have a fitted effect of over 35% in size
In short: as §1

[15] = A CellTox Green Cytotoxicity Assay to monitor cytotoxicity in HepG2 cells - 40 hour (AID 1224879); further: nearly all actives have a fitted effect of over 40% in size
In short: as §1

[16] = A CellTox Green Cytotoxicity Assay to monitor cytotoxicity in HEK293 cells - 8 hour (AID 1224884); further: nearly all actives have a fitted effect of over 35% in size
In short: as §3
Potency means the concentration at half of the fitted maximal effect; tags describe the fitted curve by direction and shape.

Chain of UniProt P10275 (P10275 whole entry, looked up): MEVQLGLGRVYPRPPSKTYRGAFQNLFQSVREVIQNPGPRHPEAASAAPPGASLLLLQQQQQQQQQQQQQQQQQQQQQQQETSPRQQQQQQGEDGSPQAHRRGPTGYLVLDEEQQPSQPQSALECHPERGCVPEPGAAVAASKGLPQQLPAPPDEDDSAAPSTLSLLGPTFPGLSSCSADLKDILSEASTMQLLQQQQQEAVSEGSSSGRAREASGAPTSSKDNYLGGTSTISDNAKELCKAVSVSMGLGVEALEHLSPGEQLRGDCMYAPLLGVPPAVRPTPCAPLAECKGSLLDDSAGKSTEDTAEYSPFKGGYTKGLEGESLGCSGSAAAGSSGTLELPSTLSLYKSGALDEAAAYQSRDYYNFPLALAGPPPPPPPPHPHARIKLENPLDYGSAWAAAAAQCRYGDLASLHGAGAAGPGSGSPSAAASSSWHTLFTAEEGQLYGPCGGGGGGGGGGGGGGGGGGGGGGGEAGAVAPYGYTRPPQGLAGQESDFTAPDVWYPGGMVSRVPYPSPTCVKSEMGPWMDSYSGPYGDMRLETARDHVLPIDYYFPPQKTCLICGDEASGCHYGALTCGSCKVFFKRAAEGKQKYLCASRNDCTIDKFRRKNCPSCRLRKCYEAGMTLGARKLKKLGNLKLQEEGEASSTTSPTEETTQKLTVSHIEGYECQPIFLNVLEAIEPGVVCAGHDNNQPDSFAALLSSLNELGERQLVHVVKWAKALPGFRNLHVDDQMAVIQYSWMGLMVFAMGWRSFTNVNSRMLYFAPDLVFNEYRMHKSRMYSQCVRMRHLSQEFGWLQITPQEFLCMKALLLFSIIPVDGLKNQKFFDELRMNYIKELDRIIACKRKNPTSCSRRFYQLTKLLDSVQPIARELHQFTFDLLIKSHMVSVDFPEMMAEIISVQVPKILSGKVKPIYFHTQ

In the case of `O=S(=O)(O)C(F)(F)C(F)(F)C(F)(F)C(F)(F)C(F)(F)C(F)(F)C(F)(F)C(F)(F)F`, the Potency [1] is reported as inconclusive: 43.6 µM [activator, partial curve], the Potency [2] is reported as inconclusive: 38.9 µM [falling, partial curve] and the Potency [3] is reported as inconclusive: 43.6 µM [activator, partial curve, poor fit]. For the same compound, the Potency [4] was inconclusive: 38.9 µM [cytotoxic, partial curve], the Potency [5] was inconclusive: 23.4 µM [activator, full curve, poor fit] and the Potency [6] was inconclusive: 6.11 µM [cytotoxic, partial curve] and inconclusive: 61.1 µM [cytotoxic, partial curve, poor fit]. The Potency [7] was inconclusive: 1.12 µM [activator, single point].

For `COc1cccc2c1C(=O)c1c(O)c3c(c(O)c1C2=O)C[C@@](O)(C(=O)CO)CC3OC1CC(N2CCOC(OC)C2)C(O)C(C)O1` (stereo partly specified), the Potency [1] was inconclusive: 0.0477 µM [activator, full curve, poor fit], the Potency [8] was “inactive” and the Potency [9] was inconclusive: 13.4 µM [cytotoxic, partial curve]. The Potency [10] was active: 0.0535 µM, the Potency [11] was active: 21.3 µM and the Potency [6] was active: 13.3 µM. For the same compound, the Potency [12] was inconclusive: 10.6 µM [cytotoxic, partial curve] and the Potency [13] was active: 0.119 µM.

With `Cc1cc(Cl)ccc1N` the Potency [1] was active: 38.9 µM, the Potency [8] was active: 38.9 µM and the Potency [14] was active: 38.9 µM.

With `O=C1NCN(c2ccccc2)C12CCN(CCCOc1ccc(F)cc1)CC2` the Potency [1] was inconclusive: 26.8 µM [activator, single point], the Potency [15] was inconclusive: 26.8 µM [activator, single point] and the Potency [10] was inconclusive: 21.3 µM [cytotoxic, partial curve].

For `Cc1cc(C)nc(Nc2ccccc2)n1`, the Potency [1] was “inactive”, the Potency [15] was “inactive” and the Potency [5] was “inactive”.

With `CC1(C)CCC(Cc2ccc(Cl)cc2)C1(O)Cn1cncn1` (stereo unspecified) the Potency [1] was inconclusive: 54.9 µM [activator, single point], the Potency [3] was active: 54.9 µM and the Potency [9] was inconclusive: 49 µM [cytotoxic, partial curve, poor fit]. The Potency [4] was inconclusive: 38.9 µM [cytotoxic, partial curve].

For `CC(C)(C)C(O)C(Oc1ccc(Cl)cc1)n1cncn1` (stereo unspecified), the Potency [1] was active: 43.6 µM, the Potency [15] was active: 43.6 µM and the Potency [4] was inconclusive: 24.5 µM [cytotoxic, partial curve, poor fit].

In the case of `NS(=O)(=O)C(F)(F)C(F)(F)C(F)(F)C(F)(F)C(F)(F)C(F)(F)C(F)(F)C(F)(F)F`, the Potency [1] is reported as inconclusive: 0.436 µM [activator, single point], the Potency [15] is reported as inconclusive: 0.49 µM [activator, single point] and the Potency [3] is reported as inconclusive: 0.49 µM [activator, single point]. For the same compound, the Potency [6] was inconclusive: 0.969 µM [cytotoxic, single point].

In the case of `C[Si](Cn1cncn1)(c1ccc(F)cc1)c1ccc(F)cc1`, the Potency [1] is reported as inconclusive: 54.9 µM [activator, single point], the Potency [8] is reported as active: 54.9 µM and the Potency [14] is reported as inconclusive: 56.8 µM [activator, single point]. For the same compound, the Potency [16] was inconclusive: 54.9 µM [activator, single point], the Potency [9] was inconclusive: 43.6 µM [cytotoxic, partial curve] and the Potency [5] was inconclusive: 54.9 µM [activator, partial curve, poor fit].

For `Nc1ccccc1C(=O)Oc1ccc2ccccc2c1`, the Potency [1] was inconclusive: 54.9 µM [activator, single point], the Potency [15] was inconclusive: 54.9 µM [activator, single point] and the Potency [3] was inconclusive: 54.9 µM [activator, single point]. The Potency [4] was inconclusive: 38.9 µM [cytotoxic, partial curve].

For `[Cl][Sn]([c]1ccccc1)([c]1ccccc1)[c]1ccccc1`, the Potency [1] was active: 2.61 µM, the Potency [3] was active: 2.61 µM and the Potency [16] was active: 2.33 µM. For the same compound, the Potency [9] was active: 2.93 µM, the Potency [5] was active: 2.33 µM and the Potency [11] was active: 9.28 µM. The Potency [12] was active: 1.64 µM.

For `CC(C)N(C(=O)SCC(Cl)=C(Cl)Cl)C(C)C`, the Potency [1] was “inactive” and the Potency [8] was inconclusive: 54.2 µM [activator, single point].

In the case of `c1ccc(N=Nc2ccccc2)cc1`, the Potency [1] is reported as “inactive” and the Potency [8] is reported as inconclusive: 56 µM [activator, single point] and inconclusive: 43.6 µM [activator, partial curve, poor fit].

Source: PubChem BioAssay (Tox21)
